The source gives no read counts; variants with many changes may rest on few reads.
B1: LINE1-full (parent)
chain: UACGUAGGUGGUUUUCCCCUGAUAGUGCUAAGGGGGCCUGGAAGUUUGGACUGGGCAGAGCUCAACACAGCGUGGCAAAGUGGCUGUGGCUAGACUGCCUCUCUGGAUUCCUCGUCACUCAGCAGGGCAUCUCUGAGAGAAAUGCC

Variants of: B1
Assay: self-cleavage, relative activity (ratio to wild type); higher = more cleavage; in vitro, sequencing; the parent is a self-cleaving ribozyme

| Variant | self-cleavage |
| --- | --- |
| U5C A22G A67U A78G A142G | 0.62 |
| U5C A22G A79G U100C | 2.76 |
| U5C A22U A78G A136G | 1.08 |
| U5C A22U U100C | 0.55 |
| U5C A24G U39C U115A | 0.5 |
| U5C A24U U81C | 2.09 |
| U5C A30G A50G G55A A79G A136G | 0.61 |
| U5C A30G G40A | 0.84 |
| U5C A30U A136G A141G | 1.53 |
| U5C A30U U85A U119A A124U A141G | 0.16 |
| U5C A31C U47C A50U C128U | 0.92 |
| U5C A31U U109A G114A U132C G135A | 1.11 |
| U5C A42G U132C A138U | 1.15 |
| U5C A42U U45A A141G | 0.15 |
| U5C A43G C95A U115C | 0.14 |
| U5C A43U U87C U115G A124G | 0 |
| U5C A50G U100A U108A U115A | 0 |
| U5C A50U U52C C113U | 0.4 |
| U5C A50U U62C C71G | 0.44 |
| U5C A50U U73A | 1.21 |
| U5C A57G A59U | 0.6 |
| U5C A57G U143C | 1.48 |
| U5C A57U U85C | 0.48 |
| U5C A65G U81C U96A | 0 |

| Variant | self-cleavage |
| --- | --- |
| U5C A65G U100A A117G U132C | 0 |
| U5C A69G U102A | 0 |
| U5C A77G U102C C110A U112A | 2.13 |
| U5C A77U C133U | 0.93 |
| U5C A92G U108C C131A A141G | 0 |
| U5C A94C A140G A142G | 0.16 |
| U5C A94G A138G | 0.88 |
| U5C C18U A78G | 0.86 |
| U5C C19U A31G | 0.67 |
| U5C C19U U47C | 1.05 |
| U5C C56A U130C A140G | 0.16 |
| U5C C56G A59G U100A A136G | 0 |
| U5C C71G A138G | 0.8 |
| U5C C111U A121G C131A | 1.41 |
| U5C G7A U47C U112C A138U | 1.23 |
| U5C G8A U14C A31U | 0.75 |
| U5C G10A U87C A107G C118A | 1.36 |
| U5C G27A U102C | 1.27 |
| U5C G32A U62C | 0.16 |
| U5C G33A A142G | 1.6 |
| U5C G33U A42G A78G U109C | 0.47 |
| U5C G36A A59U A64G G86U | 0.05 |
| U5C G40A A140C | 1.28 |
| U5C G41U A136G | 1.46 |

| Variant | self-cleavage |
| --- | --- |
| U5C G44U A59G G137A | 0.15 |
| U5C G49A U81C | 0.69 |
| U5C G55C G88A A142G | 0.09 |
| U5C G70C A141U | 0.3 |
| U5C G72A U87G | 0.32 |
| U5C G72A U102G U109A | 1.15 |
| U5C G75C A77C U96A | 0 |
| U5C G97A A142G | 0.25 |
| U5C U9A U130C | 0.8 |
| U5C U9C A57G A138G | 0.71 |
| U5C U9C C37G | 1.2 |
| U5C U9C U14C A77G | 0 |
| U5C U9G A30G G122A | 0.58 |
| U5C U12A G54A A65G C71U | 0.07 |
| U5C U12C A57G A69C G125U | 0.46 |
| U5C U12C U39A U45G A69G U132A A141G | 0 |
| U5C U12G U73A A142G | 1.31 |
| U5C U13A A43G U73A A78G | 0.29 |
| U5C U13C A79U U104C | 0.96 |
| U5C U13C C28G | 1.09 |
| U5C U13C G44A U45A A59G C90U | 0.09 |
| U5C U13C G82A A117G | 1.21 |
| U5C U13C U26A A136G | 0.18 |
| U5C U13C U52C | 0.92 |

| Variant | self-cleavage |
| --- | --- |
| U5C U14A A79C U104C | 0.37 |
| U5C U14C C19U U45G U73A U96A A142G | 0 |
| U5C U14C C61G U100C A141G | 0.1 |
| U5C U14C U46C U119C | 0.63 |
| U5C U14C U47G A65G G75A C99U | 0.19 |
| U5C U14C U73A | 1.3 |
| U5C U15A A22G U143C | 0.98 |
| U5C U15C G32A U47C | 1.17 |
| U5C U20A U96A U112G A129G | 0 |
| U5C U23A U100C U112C | 1.25 |
| U5C U23C U45C | 0.71 |
| U5C U26A U85A | 0.25 |
| U5C U26C C28A A129G A142G | 1.39 |
| U5C U26C G33A U112G C123U | 1.51 |
| U5C U26C G74A C90A | 0.11 |
| U5C U26C U29C G97C U132C | 0.46 |
| U5C U26C U47A | 1.05 |
| U5C U29C U62A U130A | 0.1 |
| U5C U29C U102G | 0.77 |
| U5C U39A G127A | 0.95 |
| U5C U45A C71U A121G | 1.18 |
| U5C U45C A94U A107G | 0.92 |
| U5C U45C A107G U108C | 1.15 |
| U5C U45C A117C G125C | 2 |

| Variant | self-cleavage |
| --- | --- |
| U5C U45G A77G U115A U130A | 2.18 |
| U5C U46A U132C | 0.76 |
| U5C U46C A50U A138U | 1.39 |
| U5C U47A A67G A129G | 0 |
| U5C U47C A77U A124G A141G | 2.04 |
| U5C U47C C113A C131U A140G | 0.74 |
| U5C U52A A65G U96C U102C | 0 |
| U5C U52A A79G | 1.21 |
| U5C U52A U73A A77C A94G | 0 |
| U5C U52C A117C | 1.77 |
| U5C U62C A69G G75A U108C | 0.18 |
| U5C U73C U85C | 0.54 |
| U5C U73C U134A A138G | 1.31 |
| U5C U81C C145U | 0.92 |
| U5C U81G U132A | 1.22 |
| U5C U85A A107G | 0 |
| U5C U87A A117G | 0.77 |
| U5C U87A U115C U130C | 0.1 |
| U5C U96A U132C | 0.25 |
| U5C U102C G137U | 2.17 |
| U5C U112C A117G | 2.3 |
| U5C U112C A121C A142G | 0.66 |
| U5C U112C A121G | 1.18 |
| U5C U130C A136G | 1.62 |

| Variant | self-cleavage |
| --- | --- |
| U5C U134C G144A | 1.47 |
| U5G A6G A77U U132G U143A | 0.61 |
| U5G A50G A78U G82A U87A U119C A124G | 0 |
| U5G A59G U96A A107U G125U | 0.04 |
| U5G C19U U62A A79U | 0.27 |
| U5G G34U U104C | 1.57 |
| U5G G60C G72C A77U U115C | 0.08 |
| U5G U9A A42U A65G | 0.15 |
| U5G U9C U39G A79G | 2.63 |
| U5G U12C U20C A138G | 1.18 |
| U5G U13C G114U U119C | 0.52 |
| U5G U23C A136G | 1.97 |
| U5G U45C U108C | 0.98 |
| U5G U45G U112C A138G | 0.27 |
| U5G U47C C103U | 0.63 |
| A6C A24G G36A | 0.61 |
| A6C A64G A65G A136U A140G | 1.23 |
| A6C U13A G33A A92G | 0.32 |
| A6C U14A U87C | 0.39 |
| A6C U14C A107G A121U | 1.38 |
| A6C U23C U39C U119A | 0 |
| A6C U29G A64U A107G | 0.81 |
| A6C U45C A77G | 1.88 |
| A6C U81C A138G | 0 |

| Variant | self-cleavage |
| --- | --- |
| A6C U130C A141G | 1.91 |
| A6G A22G A42C C133U A140G | 0.46 |
| A6G A22G A42G | 0.15 |
| A6G A22G A57G U102C U104A | 0 |
| A6G A22G G44A U96C | 0.17 |
| A6G A22G U26C | 0.97 |
| A6G A22G U119G | 1.69 |
| A6G A24G U130C U132C | 0.27 |
| A6G A31G C84A | 0.13 |
| A6G A31G U45C A57U A140G | 0.42 |
| A6G A31U A65G C66A | 0.33 |
| A6G A42G U46A A78U U96A | 0.08 |
| A6G A42G U87A | 0.44 |
| A6G A42G U119C | 1.02 |
| A6G A43G A78G G88A U104C | 0.36 |
| A6G A43G C66A A69U | 0.14 |
| A6G A43G U85C | 0 |
| A6G A43G U115A G126A A138G | 0.98 |
| A6G A50G G97U | 0 |
| A6G A64C U132C | 0.88 |
| A6G A64G A140G | 1.08 |
| A6G A64G G83A A124G G139C | 0.64 |
| A6G A64G U73C | 0.79 |

— the RNAGym collection of RNA variant scans (doi:10.7554/elife.90254)
